# About 40 (0.04%) of roughly 110,000 compounds were called active. The inconclusive results got no clear call from the source; some entries with a clear call stand among them for comparison. The call rests on the fitted dose curve; in most records, active means well fitted curve in the direction sought with a large enough effect in the signal ratio (not every such curve was filed as active); inconclusive means small, poorly fitted or top-dose-only effect, or a change in a side signal; inactive means flat fitted curve, though single readings scatter; the % refers to the signal ratio. Potencies of inconclusive entries are doubtful fits and often do not repeat.
# Assay: IkB Signaling;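 on IkBa stabilization activation: 0% = basal untreated cells and 100% = reference inhibitor full response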
# Details: ABC-DLBCL IkBa-CBG/CBR dual luciferase ratio (green luciferase fused to IkBa over red control in OCI-Ly3 lymphoma cells), 4 h; IkBa stabilization activation: at 57.1 µM (top of the series), scaled: untreated 0%, proteasome inhibitor 100% unless noted
# Summary of the method: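 In this assay, an IκBα–CBG68 fusion accumulates when IKK-driven degradation is blocked; native CBR normalizes for cell number. OCI-Ly3 cells were treated 4 h with compound and doxycycline, then green and red light read after Chroma-Glo addition.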
# Potency means the concentration at half of the fitted maximal effect.
SMILES,IkBa stabilization activation,Potency
CCOC(=O)c1ccc(CN(Cc2ccccc2C)S(=O)(=O)c2ccc(C(C)(C)C)cc2)cc1,inconclusive: -0.713% [signal inhibitor],–
COc1cccc(C2C(C(=O)Nc3ccccc3)=C(C)Nc3nc(-c4ccccc4)nn32)c1OC (centres undefined),inconclusive: 13.1% [signal inhibitor],–
Cc1cccc(-c2noc(-c3ccc(N4CCN(C)CC4)c([N+](=O)[O-])c3)n2)c1,inconclusive: -0.0104% [signal inhibitor],–
COc1ccc(C)cc1NC(=O)c1ccc2c(c1)CCN2S(=O)(=O)c1ccc(Cl)cc1,inconclusive: 1.36% [signal inhibitor],–
O=C(Nc1nccs1)c1ccc(Cl)c(S(=O)(=O)N2CCCCC2)c1,inconclusive: 0.418% [signal inhibitor],–
COc1ccc(CNc2nc3c(c(=O)n(C)c(=O)n3C)n2Cc2ccccc2Cl)cc1,inconclusive: 0.72% [signal inhibitor],–
Cc1ccc(C)c(CN2CCC(CNC(=O)c3cc4ccc5cccnc5c4[nH]3)CC2)c1,inactive,–
COc1nc(-c2ccc(C)cc2)ccc1-c1noc(-c2ccco2)n1,inactive,–
COc1ccc(-c2noc(-c3ccc(N4CCCCC4C)c([N+](=O)[O-])c3)n2)cc1OC (centres undefined),inconclusive: 3.86% [signal inhibitor],–
CCCn1c(-c2cccc(Br)c2)nc2ccccc21,inactive,–
CCCC(=O)Nc1ccc(-c2nc3cc(C)c(C)cc3o2)cc1,inactive,–
Cn1c(CSCc2ccccc2Cl)nnc1SCC(=O)Nc1nccs1,inconclusive: 5.1% [signal inhibitor],–
CCCN1C(=O)C(Cc2nc3ccccc3c(=O)n2-c2cccc(C)c2)c2ccccc21 (centres undefined),inactive,–
NC[C@@H]1O[C@H](O[C@@H]2[C@H](O[C@@H]3O[C@H](CO)[C@@H](O)[C@@H]3O)[C@@H](O)[C@@H](N)C[C@H]2N)[C@@H](N)[C@H](O)[C@@H]1O,inactive,–
Cc1cc(-n2[nH]c(C)c(C)c2=O)nc(-c2ccccc2O)n1,inconclusive: 2.99% [signal inhibitor],–
OCc1nc2ccccc2n1CC(O)Cn1ccc2ccccc21 (centres undefined),inconclusive: 3.68% [signal inhibitor],–
Cc1ccc(CNc2nc3ccc(Cl)cc3n3nnnc23)cc1,inconclusive: 3.78% [signal inhibitor],–
COc1ccc(N(Cc2cccs2)C(=O)COc2cccc(C)c2C)cc1,inconclusive: 1.35% [signal inhibitor],–
Cn1c(=O)c(-c2ccc(F)cc2)nc2cnc(OCc3ccccc3)nc21,"inactive: -0.153% [at 11.4 µM, scaled: untreated 0%, proteasome inhibitor 100%]",–
O=C1CC(c2ccc3c(c2)OCO3)c2cc3c(cc2N1)OCO3 (centres undefined),inconclusive: 0.774% [signal inhibitor],–
CCN1CCN(c2ncc3c(n2)CCN(CC(C)C)C3)CC1,inactive,–
Nc1nonc1-c1nc2ccccc2n1Cc1ccccc1,inactive,–
CCOc1ccc(-n2ccnc2SCC(=O)Nc2cccc3ccccc23)cc1,inconclusive: 3.28% [signal inhibitor],–

SMILES,IkBa stabilization activation,Potency
CCOC(=O)N1CCN(C(=O)CSc2nnc(-c3ccc(C(C)(C)C)cc3)o2)CC1,inactive,–
Cc1cccc(CC(=O)N2CC(=O)Nc3ccc(C)cc3C2c2ccc(F)cc2)c1 (centres undefined),inconclusive: 6.97% [signal inhibitor],–
COc1ccc(N2C(=O)CSC23C(=O)N(Cc2cccc(C(F)(F)F)c2)c2ccccc23)cc1 (centres undefined),inconclusive: 2.73% [signal inhibitor],–
Cc1ccc(Nc2c3c(nc4nc(-c5cccs5)nn24)CCCC3)cc1F,inconclusive: 4.25% [signal inhibitor],–
Cc1oc(-c2ccc(Cl)cc2)nc1CS(=O)CC(=O)NCCc1ccccc1 (centres undefined),inconclusive: -2.89% [signal inhibitor],–
Oc1ccc(Cl)cc1Cc1cc(Cl)cc(Cc2cc(Cl)ccc2O)c1O,"inconclusive: 6.51% [signal inhibitor] [at 11.4 µM, scaled: untreated 0%, proteasome inhibitor 100%]",–
Cc1ccc(S(=O)(=O)c2nc(-c3cccs3)oc2SCC(=O)Nc2cc(C)cc(C)c2)cc1,inconclusive: -4.78% [signal inhibitor],–
CCOC(=O)c1ccccc1NC1c2ccccc2C(=O)N1C1CCN(C(=O)OCC)CC1 (centres undefined),inconclusive: -5.68% [signal inhibitor],–
CN(CCc1ccccn1)C(=O)c1nn2c(C(F)(F)F)cc(-c3ccco3)nc2c1Cl,inactive,–
Cc1ccc(OCCN2CCN(C(=O)CCC(=O)Nc3nnc(C(C)C)s3)CC2)cc1,inactive,–
COc1ccccc1-c1nc(C#N)c(N2CCN(Cc3ccccc3)CC2)o1,inconclusive: 6.61% [signal inhibitor],–
Cc1cccc(Cn2c(=O)n(CCCC(=O)NCc3ccccc3Cl)c(=O)c3ccccc32)c1,inconclusive: 0.867% [signal inhibitor],–
Cc1ccc(NC(=O)C2CCC(CNS(=O)(=O)c3ccc4c(c3)CCCC(=O)N4)CC2)cc1F (centres undefined),inconclusive: 1.29% [signal inhibitor],–
COCCNc1nc2c(c(=O)n(Cc3cccc(Cl)c3)c(=O)n2C)n1C,inconclusive: 2.32% [signal inhibitor],–
COc1ccc2c(c1)c1c(c(=O)n(Cc3ccccc3)c(=O)n1Cc1ccccc1Cl)n2C,inactive,–
Cn1ccc2cc(NC(=O)Nc3cccnc3)ccc21,inactive,–
CCc1ccc(NC(=O)C2=C(C)C(=O)OC23CCCCC3)cc1,inactive,–
COc1ccc(OCC(=O)Nc2c(C(=O)N3CCN(c4ccccc4)CC3)oc3ccccc23)cc1,inconclusive: 3.4% [signal inhibitor],–
Brc1ccc2ncnc(Nc3ccc(N4CCOCC4)cc3)c2c1,inconclusive: -0.343% [signal inhibitor],–
CCCCN1CCCc2cc(CN(CCCN3CCOCC3)C(=O)Nc3ccc(CC)cc3)ccc21,inconclusive: -1.14% [signal inhibitor],–
CCOC(=O)c1c(-c2ccc(OC)c(OC)c2)csc1NC(=O)c1ccc(C)cc1,inconclusive: 5.95% [signal inhibitor],–
O=C(NCc1ccc(F)cc1)c1cc2cccc3c2n1CCS3,inconclusive: -3.4% [signal inhibitor],–
COc1ccc(S(=O)(=O)N(CC(=O)NCCSc2ccccc2)c2ccc(C)cc2)cc1,inconclusive: 0.375% [signal inhibitor],–

SMILES,IkBa stabilization activation,Potency
CC(C)(C)c1ccc(-c2nnc(SCc3ccc(Cl)cc3)n2-c2cccc(C(F)(F)F)c2)cc1,"inactive: 1.05% [at 11.4 µM, scaled: untreated 0%, proteasome inhibitor 100%]",–
CCOC(=O)c1cc(-c2ccccc2)n(CCC(=O)NCCc2cccc(C)c2)c1C,inconclusive: -0.11% [signal inhibitor],–
COc1ccc(S(=O)(=O)NCCc2sc3nc(-c4ccc(C)cc4)nn3c2C)cc1C,inactive,–
COC(=O)c1ccc(-c2nc(-c3ccc(Br)o3)no2)cc1,inactive,–
COc1ccccc1Cc1nc2ccccc2nc1SCC(=O)Nc1ccc2c(c1)OCO2,inactive,–
CCOc1ccccc1CNC(=O)CCC(=O)N1CCSc2ccccc21,inconclusive: 0.537% [signal inhibitor],–
CCCN(CCC)C(=O)CSc1c2c(nc3ccc(Cl)cc13)CCCC2,inconclusive: 0.747% [signal inhibitor],–
O=C(c1cc(-c2ccccc2O)on1)N1CCCC1,–,"inconclusive: 15.8 µM [signal inhibitor, partial curve]"
Cc1ccc(S(=O)(=O)N2CCCC2C(=O)Nc2nc3ccccc3s2)cc1 (centres undefined),inconclusive: 3.97% [signal inhibitor],–
Cc1ccc(C)c(NC(=O)C(Cc2ccccc2)n2cccc2)c1 (centres undefined),inconclusive: -0.697% [signal inhibitor],–
COc1ccc(OC)c(NC(=O)Cn2c(=O)n(Cc3ccco3)c(=O)c3cc(OC)c(OC)cc32)c1,inconclusive: 3.38% [signal inhibitor],–
N#Cc1c(/N=C/N2CCOCC2)sc2c1CCCCC2,inactive,–
COc1ccc(Nc2nnc(-c3ccc(C)c(S(=O)(=O)NCc4nc5ccccc5[nH]4)c3)c3ccccc23)cc1,inconclusive: 17.6% [signal inhibitor],–
CCC(C)Sc1oc(-c2ccco2)nc1S(=O)(=O)c1ccc(Cl)cc1 (centres undefined),inactive,–
Cc1ccc(NC(=O)Cn2nnc(C(=O)NCCc3ccccc3)c2N)cc1,inconclusive: 1.62% [signal inhibitor],–
O=C(NCc1ccc(Cl)cc1)c1ccc2c(c1)NC(=O)C(CS(=O)(=O)Cc1ccc(F)cc1Cl)N2 (centres undefined),inconclusive: -0.465% [signal inhibitor],–
O=C(COC(=O)c1ccc(Br)o1)Nc1nc2ccccc2s1,inconclusive: 6.18% [signal inhibitor],–
Cc1cc2ccccc2n1CCNC(=O)C1CCCC1,inactive,–
COc1ccc(C)cc1NC(=O)c1cc2ccccn2n1,inactive,–
CCc1ccc(NC(=O)C2CCCN(S(=O)(=O)c3cccc4nsnc34)C2)cc1 (centres undefined),inconclusive: 2.48% [signal inhibitor],–
O=C(O)C1C2C=CC(C2)C1C(=O)Nc1cccc(F)c1 (centres undefined),inactive,–
CN(C)c1ncc2nc(-c3ccc(F)cc3)c(=O)n(C)c2n1,"inactive: -1.3% [at 11.4 µM, scaled: untreated 0%, proteasome inhibitor 100%]",–
CCN(C(=O)CCc1nc(-c2ccc(C)cc2)no1)c1cccc(Cl)c1,–,inconclusive: 39.8 µM [signal inhibitor]
